The whole screen tested about 220,000 compounds, of which about 16,000 (7.3%) were called active. The shares of active, inactive and inconclusive entries below differ from those in the screen. The call rests on the fitted dose curve; in most records, active means well fitted inhibition curve with a large enough effect (not every such curve was filed as active); inconclusive means small, poorly fitted or top-dose-only effect, or another doubt; inactive means no such curve, though single readings can be large or run the other way. No potency is given beside an inconclusive call; the fits are too rough.
Target: Aldehyde dehydrogenase 1A1 (Homo sapiens) (UniProt P00352)
Assay: qHTS Assay for Inhibitors of Aldehyde Dehydrogenase 1 (ALDH1A1)
Conditions: Purified ALDH1A1, NADH fluorescence, propionaldehyde substrate; series mostly up to 75.3 µM
Potency means the concentration at half of the fitted maximal effect; tags describe the fitted curve by direction and shape.

Chain of UniProt P00352 (P00352 whole entry, looked up): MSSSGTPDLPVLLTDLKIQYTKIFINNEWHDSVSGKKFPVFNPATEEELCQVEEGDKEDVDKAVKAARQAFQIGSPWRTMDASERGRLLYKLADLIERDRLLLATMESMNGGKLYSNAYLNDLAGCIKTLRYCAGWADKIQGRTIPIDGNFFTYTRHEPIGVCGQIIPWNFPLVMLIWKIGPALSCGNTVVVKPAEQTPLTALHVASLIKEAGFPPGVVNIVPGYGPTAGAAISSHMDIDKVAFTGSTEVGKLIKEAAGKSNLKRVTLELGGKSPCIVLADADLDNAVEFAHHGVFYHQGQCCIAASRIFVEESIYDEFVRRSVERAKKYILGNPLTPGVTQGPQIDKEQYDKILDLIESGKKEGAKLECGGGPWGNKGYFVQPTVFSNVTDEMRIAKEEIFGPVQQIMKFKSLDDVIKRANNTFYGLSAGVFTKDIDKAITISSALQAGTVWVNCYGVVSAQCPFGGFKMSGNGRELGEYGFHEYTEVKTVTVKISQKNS

Compound | Potency
Cc1ccc2c(c1)NC(=O)c1cccnc1N2 | inconclusive [inhibitor, single point]
Cc1nn2c3ccccc3n(CC(=O)c3cccs3)c2nc1=O | inactive
COc1ccc(Cl)cc1Nc1ncnc2sc(C)c(S(=O)(=O)N3CCC(C)CC3)c12 | inconclusive [inhibitor, partial curve]
COc1ccc(C(=O)COC(=O)CSCc2c(C)noc2C)cc1OC | inconclusive [inhibitor, single point]
CCOC(=O)c1c(NC(=O)CCCN2CCOCC2)sc2c1CC(C)(C)OC2 | inconclusive [inhibitor, single point]
COC(=O)N1CCC2(CC1)CN(c1ccccn1)C2 | inconclusive [inhibitor, partial curve]
COc1ccccc1-n1cc(C(=O)c2cc(Cl)ccc2O)cc(C#N)c1=O | inactive
O=C(N/N=C/c1ccco1)C1COc2ccccc2O1 (centres undefined) | inactive
CC(C)c1ccc(Nc2nnc(SCC(=O)Nc3ncc(S(=O)(=O)c4ccc([N+](=O)[O-])cc4)s3)s2)cc1 | inconclusive [inhibitor, single point]
COc1ccc(CN(C(=O)CSc2nnc(-c3ccccc3F)o2)c2ccc(F)cc2)cc1 | inconclusive [inhibitor, single point]
COc1cccc(-c2csc(N3CCN(C(=S)Nc4ccccc4)CC3)n2)c1 | inactive
COc1cccc(-c2cc(C(F)(F)F)n3ncc(C(=O)N4CCc5ccccc5C4)c3n2)c1 | inconclusive [inhibitor, single point]
O=C(NCc1ccco1)c1cccnc1Cl | inconclusive [inhibitor, single point]
Cc1ccc(-c2nc(NC(=O)CSc3nnc(C)s3)ns2)cc1 | inconclusive [inhibitor, partial curve]
O=S1(=O)N=C(Oc2ccccc2)c2ccccc21 | inconclusive [inhibitor, single point]
COc1ccc(-c2cc(=O)c3c(O)c(OC)c(OC)c(OC)c3o2)cc1 | active: 0.112 µM
O=C1CCCc2nc(N3CCN(c4ccccc4)CC3)ncc21 | inactive
CCCOc1ccc(C2C(C(=O)OC)=C(C)N=C3SCCC(=O)N32)cc1OCC (centres undefined) | inactive
CNc1nc(C)nc(N/N=C/c2ccccc2)n1 | active: 12.6 µM
CC(C)(C)c1ccc(C(=O)NNc2ncccc2-n2cccc2)cc1 | inactive
O=C(CSc1ccc(-c2ccccc2)nn1)N1CCN(c2ccccc2)CC1 | active: 22.4 µM
Cc1cccc(NC(=O)CSC2=NN3CCCC(=O)N=C3S2)c1C | active: 31.6 µM
CCc1ccc(NC(=O)CCN2C(=O)c3cccnc3C2=O)cc1 | inactive
NC1(C(=O)O)CC1 | inactive
O=C(CC(=O)c1ccccc1)Nc1cccnc1Cl | inconclusive [inhibitor, partial curve]

Compound | Potency
CCN1CCN(C2=NC(=O)/C(=C/c3ccc(C)o3)S2)CC1 | active: 20 µM
C(=N/N1CCN(c2ccccc2)CC1)/c1cccs1 | inactive
N#CCC(=O)N/N=C/c1cn(Cc2ccc(Cl)c(Cl)c2)c2ccccc12 | inactive
COc1ccc(N=C2SC(CC(=O)Nc3ccccc3)C(=O)N2CCc2ccccn2)cc1 (centres undefined) | inactive
Cc1cccnc1NC(=O)C1COc2ccccc2O1 (centres undefined) | inactive
CC(C)(C)c1ccc(-c2nnc(SC3CCOC3=O)n2Cc2ccccc2)cc1 (centres undefined) | inconclusive [inhibitor, single point]
CCCc1cc(=O)[nH]c(SCCOc2ccc(Cl)cc2)n1 | inconclusive [inhibitor, single point]
COc1ccccc1OC(=O)C1CC(=O)N(c2ccc(Cl)cc2)C1 (centres undefined) | inconclusive [inhibitor, single point]
CCOC(=O)C1=C(C)NC(SCC(=O)O)=NC1c1ccccc1 (centres undefined) | inconclusive [inhibitor, single point]
Nc1nc2ccccc2cc1S(=O)(=O)c1ccccc1 | inconclusive [inhibitor, partial curve]
O=C(/C=C/c1cccs1)NC(=S)NNC(=O)c1ccccc1O | inconclusive [inhibitor, single point]
Oc1cc2c(cc1O)C1c3ccc(O)c(O)c3OCC1(O)C2 (centres undefined) | active: 11.2 µM
CCOC(=O)Cn1cc(/C=C/[N+](=O)[O-])c2ccccc21 | inconclusive [inhibitor, single point]
CC(CNC(=O)COc1ccccc1)OC(=O)Nc1cccc(Cl)c1 (centres undefined) | inconclusive [inhibitor, single point]
CCOc1cc(/C=C2/SC(=S)N(C)C2=O)ccc1Oc1ccc([N+](=O)[O-])cc1[N+](=O)[O-] | active: 0.398 µM
Cn1nnnc1SCC(=O)N1CCN(C(c2ccccc2)c2ccccc2)CC1 | inconclusive [inhibitor, single point]
COc1cccc(C2c3[nH]c4ccccc4c3CCN2Cc2cccn2-c2ncccn2)c1 (centres undefined) | inactive
CCCc1[nH]c(=O)c(C#N)c2c1COC(C)(C)C2 | inconclusive [inhibitor, partial curve]
CCOC(=O)c1cnc(SC)nc1Nc1cccc2ccccc12 | inconclusive [inhibitor, single point]
CN1C(=O)NC(c2ccc(O)cc2)C2=C1CN(c1ccc(O)cc1)C2=O (centres undefined) | inactive
O=C(COC(=O)Cn1cnc2ccccc21)Nc1cc2c(cc1Cl)C(=O)c1ccccc1C2=O | inconclusive [inhibitor, full curve]
CC(C)(O)C#Cc1ccc(CN2CCN(Cc3ccccc3)C(CCO)C2)cc1 (centres undefined) | inconclusive [inhibitor, single point]
COc1ccc(S(=O)(=O)Nc2cc3c4c(oc3c3ccccc23)CCCC4=O)cc1 | active: 7.94 µM
COc1cc2cc(C(N)=O)c(N)nc2cc1OC | inconclusive [inhibitor, partial curve]
